Among all 43,000 compounds or so, about 200 (0.47%) were called active. This list was built around the results that the source calls inconclusive (neither active nor inactive); the mix of calls is not that of the screen. Calls come from the whole dose curve; as a rule, active = well fitted cell-killing curve with a large enough effect; inconclusive = small, poorly fitted or top-dose-only effect, or effect the other way; inactive = flat fitted curve, though single readings scatter. Where the call is inconclusive, the potency comes from a doubtful curve fit.
Test: Cell viability qHTS assay in S16 Pmp22-F2sN cells; note: nearly all actives have a fitted effect of over 65% in size
Conditions: S16 Pmp22-F2sN Schwann cells (luciferase reporters placed in the Pmp22 gene) viability, CellTiter-Glo, 24 h; activity change, negative = cytotoxicity: at 57.5 µM (top of the series)
Procedure, shortened: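 Rat S16 Schwann reporter line, 24 h treatment with library compounds delivered at 23 nL per well. Cell viability by CellTiter-Glo luminescence.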
% is set by controls: 0 for no effect and ±100 for the full control effect; potency is the fitted concentration of half-maximal effect; tags give direction and shape of the fitted curve.

Row | Compound | Potency | activity change, negative = cytotoxicity
1 | CCN1CCOC(=O)C1CC(=O)Nc1cc(C)ccc1OC (stereo not drawn) | inconclusive: 31.6 µM [cytotoxic, single point] | –
2 | COc1cccc(CNC(=O)C(=O)NCC(c2ccco2)S(=O)(=O)c2cccs2)c1 (stereo not drawn) | inconclusive: 35.5 µM [cytotoxic, partial curve, poor fit] | –
3 | CC(C)(C)C(=O)Cn1c(=O)n(-c2ccc(Cl)cc2)c(=O)c2c3c(sc21)CCCC3 | inconclusive: 3.98 µM [rising, full curve, poor fit] | –
4 | O=C(Nc1ccc2nc(SCC(=O)N3CCOCC3)sc2c1)c1cccc(Cl)c1 | – | inactive: 2.93%
5 | Cc1c(C(=O)OCCOc2ccccc2)[nH]c2c1C(=O)CC(c1ccccc1)C2 (stereo not drawn) | inconclusive: 0.282 µM [cytotoxic, full curve, poor fit] | –
6 | CC(Oc1ccc(F)cc1)C(=O)N1CCC(c2nc3ccccc3s2)CC1 (stereo not drawn) | inconclusive: 31.6 µM [cytotoxic, single point] | –
7 | COc1ccccc1N1CCN(C(=O)c2nc(SC)ncc2Cl)CC1 | inconclusive: 5.62 µM [cytotoxic, full curve] | –
8 | COc1ccc(C)cc1NC(=O)CCS(=O)(=O)c1cc2c3c(c1)CCN3C(=O)CC2 | inconclusive: 17.8 µM [cytotoxic, partial curve, poor fit] | –
9 | CCOc1ccc(N2CC(c3nc4ccccc4n3CCCOc3ccccc3)CC2=O)cc1 (stereo not drawn) | inconclusive: 39.8 µM [cytotoxic, single point] | –
10 | CC(C)(C)OC(=O)N1CCC(c2c(C(=O)NCCN3CCc4ccccc4C3)cnn2-c2ccc(F)cc2F)CC1 | inconclusive: 17.8 µM [cytotoxic, partial curve, poor fit] | –
11 | Cc1ccc(CN2CCC(CNC(=O)Nc3ccc(Cl)cc3)C2)cc1 (stereo not drawn) | inconclusive: 39.8 µM [cytotoxic, single point] | –
12 | CCOCCc1nn2c(=O)cc(COC(=O)CNC(=O)c3cccc(C)c3)nc2s1 | inconclusive: 39.8 µM [rising, single point] | –
13 | COc1ccccc1NC(=O)c1c(NCc2ccc(OC)c(OC)c2OC)sc2c1CCC2 | inconclusive: 39.8 µM [cytotoxic, single point] | –
14 | CC(C)c1ccc(NC(=O)Cn2cc(S(=O)(=O)N3CCN(c4ccccc4F)CC3)c3ccccc3c2=O)cc1 | – | inactive: -1.34%
15 | CCOc1ccc(NC(=O)c2cnc(N3CCCC3)nc2C)cc1 | – | inactive: -0.0897%
16 | CCOc1ccc(CCNC(=O)c2cn(C)c3ccc(S(=O)(=O)N4CCCCCC4)cc3c2=O)cc1OCC | inconclusive: 28.2 µM [cytotoxic, partial curve, poor fit] | –
17 | COc1ccc(/C=C/C(=O)Nc2ccc3nc4c(c(Nc5ccccc5OC)c3c2)CCCC4)cc1 | inconclusive: 22.4 µM [cytotoxic, partial curve, poor fit] | –
18 | COc1ccc(Nc2cc(C(=O)NCCCN3CCN(c4ccc(OC)cc4)CC3)c3ccccc3n2)cc1 | inconclusive: 39.8 µM [cytotoxic, single point] | –
19 | Cc1oc(C)c2c(=O)cc(-c3ccc4c(c3)OCO4)cc(OC(=O)c3cccc(Br)c3)c12 | inconclusive: 22.4 µM [cytotoxic, partial curve] | –
20 | Cc1cc(NC(=O)c2cccc(Cl)c2)ccc1-c1cc2ccccc2oc1=O | inconclusive: 39.8 µM [cytotoxic, single point] | –
21 | Nc1ccc(N2CCN(c3ncc(C(F)(F)F)cc3Cl)CC2)c(C(F)(F)F)c1 | – | inactive: -22%

Row | Compound | Potency | activity change, negative = cytotoxicity
22 | O=C(Cn1c(=O)nc(-c2ccccc2)c2ccccc21)NCc1ccc(Cl)cc1 | inconclusive: 14.1 µM [rising, partial curve, poor fit] | –
23 | CCCN1C(=O)c2[nH]nc(-c3ccccc3O)c2C1c1ccc(OCc2ccccc2)c(OC)c1 (stereo not drawn) | inconclusive: 35.5 µM [cytotoxic, single point] | –
24 | Cc1nc(-c2cccc(NC(=O)Nc3ccc([N+](=O)[O-])cc3)c2)no1 | active: 28.2 µM | –
25 | COC(=O)c1ccccc1NC(=O)c1ncoc1-c1ccco1 | inconclusive: 8.91 µM [cytotoxic, partial curve, poor fit] | –
26 | CCCN1C(=O)c2[nH]nc(-c3ccccc3O)c2C1c1ccc(OCc2ccccc2)c(OCC)c1 (stereo not drawn) | inconclusive: 39.8 µM [cytotoxic, single point] | –
27 | Cc1nnc(NC(=O)CSc2nc3c([nH]c4ccccc43)c(=O)n2-c2ccccc2)s1 | – | inactive: 21.3%
28 | COc1ccc(Cn2c(CNC(=O)c3ccc(N(C)C)cc3)nc3cccnc32)cc1 | – | inactive: 14.5%
29 | CCC(Sc1nc2ccccc2c2nc(CCn3cncc3C)nn12)C(=O)Nc1cccc(OC)c1 (stereo not drawn) | inconclusive: 39.8 µM [cytotoxic, single point] | –
30 | CC(C)Oc1ccc(C(=O)Nc2ccc3c(c2)CCCN3C(=O)c2cccs2)cc1 | inconclusive: 25.1 µM [cytotoxic, single point] | –
31 | CCn1c(=NC(=O)c2ccc3c(c2)OCCO3)sc2c(C)ccc(OC)c21 | – | inactive: 2.44%
32 | Cc1ccc2sc(N(Cc3cccnc3)C(=O)CCOc3ccccc3)nc2c1C | – | inactive: 0.73%
33 | COc1cc(C(=O)CC2(O)C(=O)N(Cc3ccccc3Cl)c3ccccc32)cc(OC)c1OC (stereo not drawn) | – | inactive: -5.96%
34 | Cc1ccc(-c2nnc(Nc3ccc(Br)cc3)c3ccccc23)cc1S(=O)(=O)N1CCN(C)CC1 | inconclusive: 22.4 µM [cytotoxic, partial curve] | –
35 | CCN(c1ccccc1)C(CNS(=O)(=O)c1ccccc1)c1ccccc1 (stereo not drawn) | – | inactive: -35.9%
36 | CCOc1cccc(C2Nc3ccccc3-c3cc(C)nn32)c1O (stereo not drawn) | – | inactive: -6.27%
37 | COc1ccc(OC)c(C(=O)c2c(N)c(-c3nc(-c4ccc(C)c(C)c4)cs3)c3ccccn23)c1 | inconclusive: 1.26 µM [rising, full curve, poor fit] | –
38 | Clc1cccc(CSc2nncn3c2cc2sccc23)c1 | – | inactive: -1.34%
39 | COc1cc(NC(=O)c2nn(-c3ccc(C)cc3)c(=O)c3c2c2ccccc2n3C)cc(OC)c1OC | inconclusive: 7.08 µM [cytotoxic, single point] | –
40 | COc1cccc(N2CCN(C(=O)c3cc4c(=O)n(Cc5ccccc5)ccc4nc3C)CC2)c1 | inconclusive: 39.8 µM [cytotoxic, single point] | –
41 | CC(C)C1C(=O)Nc2ccc(S(=O)(=O)NCc3ccc(Cl)cc3)cc21 (stereo not drawn) | inconclusive: 39.8 µM [cytotoxic, partial curve, poor fit] | –
42 | Cc1ccc(NC(=O)CSc2c3c(nc4ccccc24)CCCC3)cc1F | – | inactive: -18.4%

Row | Compound | Potency | activity change, negative = cytotoxicity
43 | COc1ccc(CCN2C(=O)c3[nH]nc(-c4ccccc4O)c3C2c2cccc(OC)c2)cc1 (stereo not drawn) | inconclusive: 20 µM [cytotoxic, partial curve, poor fit] | –
44 | Cc1cc(=O)n(CC(=O)Nc2ccc([N+](=O)[O-])cc2)c(-n2nc(C)cc2C)n1 | inconclusive: 39.8 µM [cytotoxic, partial curve, poor fit] | –
45 | O=C(COc1ccccc1)NCc1ccc2c(c1)CCN2C(=O)c1ccccc1 | inconclusive: 15.8 µM [cytotoxic, partial curve] | –
46 | COC(=O)c1cccc(Cn2nnc3sc4c(c3c2=O)CCC(C(C)(C)C)C4)c1 (stereo not drawn) | inconclusive: 0.02 µM [cytotoxic, full curve, poor fit] | –
47 | Cc1nnc(N2CCCC(C(=O)Nc3cccc(C(F)(F)F)c3)C2)c2nn(-c3ccccc3)c(C)c12 (stereo not drawn) | inconclusive: 39.8 µM [cytotoxic, single point] | –
48 | Cc1cccc(N(C)C(CNS(=O)(=O)c2ccccc2)c2ccccc2)c1 (stereo not drawn) | – | inactive: 16.1%
49 | CCN(CC)S(=O)(=O)c1ccc(NC(=O)c2ccc3c(=O)n4c(nc3c2)CCCCC4)cc1 | – | inactive: -27%
50 | CC(C)(C)C(=O)Nc1nnc2n1CCS2 | – | inactive: -0.518%
51 | Cc1ccc(NC(=O)C2CCN(S(=O)(=O)c3cccc4nonc34)CC2)c(Cl)c1 | inconclusive: 39.8 µM [rising, partial curve, poor fit] | –
52 | Cc1c(Cl)cccc1NC(=O)C1CCCN(C(=O)c2cnn(-c3ccccc3)c2-n2cccc2)C1 (stereo not drawn) | inconclusive: 39.8 µM [cytotoxic, single point] | –
53 | CCOc1ccccc1NC(=O)CSc1nc2c(oc3ccccc32)c(=O)n1C(C)C | inconclusive: 0.0562 µM [rising, full curve, poor fit] | –
54 | CC(C)OCCCNc1sc(S(=O)(=O)c2ccccc2)nc1S(=O)(=O)c1ccc(Cl)cc1 | – | inactive: -13.2%
55 | O=C(NCCc1cccs1)c1ccc(Cn2c(SCc3ccccc3)nc3cccnc32)cc1 | inconclusive: 39.8 µM [cytotoxic, single point] | –
56 | CN(C)c1ccc(CNC(=O)CN2C(=O)c3cccnc3Oc3ccc(Cl)cc32)cc1 | – | inactive: 14%
57 | CCCOc1ccc(C(=O)Nc2cccc(NC(=O)c3ccc(Cl)cc3Cl)c2)cc1 | active: 14.1 µM | –
58 | CC(Nc1ncnc2c1cnn2-c1cccc(Cl)c1)c1ccccc1 (stereo not drawn) | inconclusive: 0.631 µM [rising, full curve, poor fit] | –
59 | Cc1cc2c(cc1C)NC(CC(=O)Nc1cccc(C)c1C)C(=O)N2 (stereo not drawn) | inconclusive: 7.08 µM [rising, full curve, poor fit] | –
60 | O=C(NCc1ccc(Cl)cc1)C(=O)NCC(c1cccnc1)N1CCN(c2ccccc2)CC1 (stereo not drawn) | inconclusive: 28.2 µM [cytotoxic, single point] | –
61 | Cc1ccccc1-n1c(=O)c2ccccc2n(Cc2ccc(F)cc2)c1=O | inconclusive: 35.5 µM [rising, single point] | –
62 | CCOC(=O)c1ccccc1NC(=O)CN(c1cc(C(F)(F)F)ccc1Cl)S(C)(=O)=O | inconclusive: 31.6 µM [rising, partial curve, poor fit] | –
63 | CCOc1ccc(NC(=O)c2cnn3c2NC(c2ccccc2)=CC3c2cccc(OC)c2OC)cc1 (stereo not drawn) | inconclusive: 39.8 µM [cytotoxic, single point] | –
